These results are taken from the RNAGym collection of RNA variant scans (doi:10.7554/elife.90254).

Sequences and labels used below:
B1: LINE1-mini (parent)
chain: GGCAGAGCUCAACACAGCGUGGCAAAGUGGCUGUGGCUAGACUGCC

The source gives no read counts; variants with many changes may rest on few reads.

The variants in the series derive from B1. In words: self-cleavage, relative activity (ratio to wild type); higher = more cleavage; in vitro, sequencing; the parent is a self-cleaving ribozyme.
As to GGCAGAGCGCAACACAGCGUGUAAAAGUGGCUGUGGCUAGACUGCC [U9G G22U C23A], the self-cleavage came to 0.07.
On to GCCAGAGCUCUACACAGCGUGGCAAAGUGGCUAUGGCUAGACUGCU [G2C A11U G33A C46U], for which the self-cleavage was determined as 0.01.
As for AGCACAGCUCGUCAUAGCGUGGGCAAGUAGCUGUGCCUAGACUGCC [G1A G5C A11G A12U C15U C23G A24C G29A G36C], the figure is 0.01.
As for CGUAGAGCUCAACACAGCCUGGUAAAGUGGCUGUGGCUAGAAUGCC [G1C C3U G19C C23U C42A], the figure is 0.03; as for GGCAGAGAUCAACACAGCGUGGCAAAGUUGCUGUGGCUAGAUUGCC [C8A G29U C42U], 0.1; as for UGCAGAGCUCAACACAGCGUGGCGAAUUGGCUGUGGCUAGACUGCC [G1U A24G G27U], 0.17.
As for GGCAGAGCUCCACACAACGGGGCAAAGUGGUUGUGGCAAGACUGCU [A11C G17A U20G C31U U38A C46U], the figure is 0.
Regarding GUCAGAGGUCAACACUGUGUGGCAAAGUGGCUGUGGCUAGAUUGCC [G2U C8G A16U C18U C42U], the self-cleavage amounted to 0.16.
As for GGCAGAGCUAAACCCAGCGUGGCAAAGUGGCUAUGGCUACACUGCC [C10A A14C G33A G40C], the figure is 0.01.
Take GGUACAGCUCAACACAGCGUGGCAAAGUGGCUGUGGCUAGACAGCC [C3U G5C U43A]: the self-cleavage is 0.11.
Next, GGGAGAGCUCAACACAUCGUGGGAAAGUGGCUGUGGCUAGACUGCC [C3G G17U C23G]: 0.07.
As for GGCAGAGCUCAGCCCAGCCUGUCAAAGUGCCUGGGGCUAGACUGCC [A12G A14C G19C G22U G30C U34G], the self-cleavage amounted to 0.
Next, GGCAGAGCUCAACACAGCGUGGAAAAGUUGCUUUGGCUAGAAUGCC [C23A G29U G33U C42A]: 0.09; GGUAGAGCUCAACACAGUCUCGCAAAAUGGCUUUGCCUAGACUGCC [C3U C18U G19C G21C G27A G33U G36C]: 0.1; GGCAGAGCUCAACACAGCGUGGCAAAGUGGCUAUGGCGAGACUGCU [G33A U38G C46U]: 0.02.
Take GGCAGAGCUCAACUCAGCGUGGCAAAGUGCCUGUUGUUAGACUGCC [A14U G30C G35U C37U]: the self-cleavage is 0.03.
Next, GGCAGAACUCAACACAGCGUGGCAAAGUGCCUGUGCCUAGACUGCC [G7A G30C G36C]: 0.13; GGCAGAGCUCAAUACAGCCUGGCAAAAUGGAUGUGGCUAGACUGCC [C13U G19C G27A C31A]: 0.06; GGCAGAGCUCAACACAGAGUGGCAAUGUGGCUCUGGCUAGACUGUC [C18A A26U G33C C45U]: 0.04.
As for GGCAGAGCAAAACACAGCGUGUCAAAGUGGGUGUGGCAAGACCGCC [U9A C10A G22U C31G U38A U43C], the figure is 0.01.
As to AGCAGAGCUCAACACAGCGUGGCAAAGUGUCUGUGGUUAGGCUGCC [G1A G30U C37U A41G], the self-cleavage was found to be 0.09.
As for GGCAGAUCUCAACACAGCGUGGCAAAGUGGCUAAGGCUAGACUGCC [G7U G33A U34A], the figure is 0.05; as for AGCAAAGCUCAACACAUCGCGGCAAUGUGGUUGUGGCUAGACUGCC [G1A G5A G17U U20C A26U C31U], 0.24; as for GGCAGAGCUCUAGUCAGGCUGGCAAAGUGGCUGUGGCAAGACUGCC [A11U C13G A14U C18G G19C U38A], 0.
Next, GGCUGAGCUAAACACAGCGUGGCAAAGUGGCUGUGACUAGACUGCU [A4U C10A G36A C46U]: 0.02.
Next, GGCAGAGCUCAACAAAGGGUGGUAAAGCGGCUGUGGCUAGACUGCC [C15A C18G C23U U28C]: 0.09; GGCAGAGCUUAACACGGCGUGGCAAAGUGGCUGUGGCUAGACUGCU [C10U A16G C46U]: 0.07; GGGACAGCUCAACACAGCGUGGCAAAGUGGCUAUGGCUACAUUGCC [C3G G5C G33A G40C C42U]: 0.08.
GGCAGAGCUUAACACGGCGUGGCAAAGUGGCUGUGGCUAGACUACG [C10U A16G G44A C46G]: the self-cleavage was 0.06.
As for GGCAGAGCUCCACACAGCGUGGCAAAUUGGCUGUGGCUAGACUGAC [A11C G27U C45A], the self-cleavage stood at 0.02.
As for GGCCGAGCUAAACACAGCUUGGCCAUGUGGCUGUGGCUAGACUGCC [A4C C10A G19U A24C A26U], the figure is 0.
Turning to GGCAGAGCUCAACACAGCGUGGCAAAGUUGCUGUGGCUAGCCUGUC [G29U A41C C45U], the self-cleavage is 0.01.
Next, GCCAGAGCUCAACUCAGCGUGGCAAAGUGGCUGUGGCUAGCCUGCC [G2C A14U A41C]: 0.01; GGCAGAGCUCAACACAGCGUGCCCCAGUGUCUGAGGCUAGACUGCG [G22C A24C A25C G30U U34A C46G]: 0.01.
As for GGCAGAGAUCAAUACCGCGUGGCAACGUGGCUGUGGGUAGACUGCC [C8A C13U A16C A26C C37G], the figure is 0.62.
As to GUCAGAGAUCAACACGGCGUGGCAAAGUGGCGGUGGCUAGACUGCC [G2U C8A A16G U32G], the self-cleavage worked out at 0.02.
Consider GUCAGAGCUCAACACAGCGUUACAAAGUGGCUGUGGCUAGACUGCC [G2U G21U G22A], for which the self-cleavage came to 0.11.
Next, GGAAGAGCUCAAUACAGCGUGGCAAAGUGGCUGUGGCUAGUCUGCC [C3A C13U A41U]: 0.71; GGCAGAGCUCAACACAGCGUGGCAAACUUGCUGUGGCUAGAGUGCC [G27C G29U C42G]: 0.02.
As for GGCAGAGCUCUACACAGCGUGUCAAAGUGGCUGUCGCUAGACUGCA [A11U G22U G35C C46A], the figure is 0.03.
For the variant GGCAGAGCUCAACACAGCGUGGCAAAGUGGCUGUCUCCAGACUGCC [G35C G36U U38C], the self-cleavage came to 0.02.
As for GGCAGAGCUCAACACAGCGUGGCAAAGUUGAUGGGGCUAUACUGCC [G29U C31A U34G G40U], the figure is 0; as for GGCAGAGCUCAACACUGCGUGGCAAAGUGGCUGUGGCAAUACUGCC [A16U U38A G40U], 0.03.
Consider GGCAGAGCUAAACCCAGCGUAGCCAAGUGGCUGUGGCUAGACUGCC [C10A A14C G21A A24C], for which the self-cleavage came to 0.01.
Regarding GCCAGAGCUCAACACACCGUGGCAAAGUGGAUGUGGCUAGACUGCC [G2C G17C C31A], the self-cleavage turned out to be 0.25.
On to GGCAGAGCUCAACACAGUGUGGCAAAGUCGCUAUGGCUAGACUGCC [C18U G29C G33A], for which the self-cleavage was 0.06.
Next, UGCAGAGCUCAACACAGCGUGGGCAAGGGGAUGUGGCUAGACUGCC [G1U C23G A24C U28G C31A]: 0.02.
Take GGCAGAGCUCAACACAGCGUGGCAAAGUGUAUGUGGCUUGACUGCC [G30U C31A A39U]: the self-cleavage turned out to be 0.05.
As for GGCAAAGCUCAACACAGCGUGGGAAAGAGGCUGUGGCUAGACUGCC [G5A C23G U28A], the figure is 0.19; as for GGCAGAGGUCAACACAGCGUGGCAAAGUUGCUGUGGCGAGACUCCC [C8G G29U U38G G44C], 0.01.
As for GGCAGAGCUCAACACAGCUUGGCAAAGUGACUGUGCCUAGACUGCC [G19U G30A G36C], the figure is 0.1.
As for GGCAUCGCUCAACACCUCGUGGCAAAGUGGCUGUGGCUAGACUGCC [G5U A6C A16C G17U], the figure is 0.09; as for GGCAGAGCACAACCCAGCGUGGCAACGUGGCUGUGGCUAUACUCCC [U9A A14C A26C G40U G44C], 0.01; as for AGCAGAGCUCAACACAGCGUGCUAAAGUGGCUGUGGCUAGACUUCC [G1A G22C C23U G44U], 1.19.
On to GGCAGAGAUCAAGACAGCGUCGCAAAGUGGCUGUGGAUAGACUGCC [C8A C13G G21C C37A], for which the self-cleavage amounted to 0.02.
Next, AGCAGAACUCAACACAGCCUGGCAAAGUGGCUGUCGCUAGCCAGCC [G1A G7A G19C G35C A41C U43A]: 0.12.
